The list shows a part of the results. At the low end of the ranking the order means little. Measured with an extract: partners may take part in the binding.
What follows are sequences tested against T1, HNF4alpha8 (COS-7 nuclear extract) (UniProt P41235-5) (assay: protein-binding microarray). Conditions: COS-7 nuclear extract on double-stranded Agilent 4x180k PBM; binding buffer, salt, pH and temperature not given; high values mean tight binding; double strand, one strand shown; sequences stand for … in …GCCTAGGGAGATTAGAGTATCGGTCGA.
T1 sequence: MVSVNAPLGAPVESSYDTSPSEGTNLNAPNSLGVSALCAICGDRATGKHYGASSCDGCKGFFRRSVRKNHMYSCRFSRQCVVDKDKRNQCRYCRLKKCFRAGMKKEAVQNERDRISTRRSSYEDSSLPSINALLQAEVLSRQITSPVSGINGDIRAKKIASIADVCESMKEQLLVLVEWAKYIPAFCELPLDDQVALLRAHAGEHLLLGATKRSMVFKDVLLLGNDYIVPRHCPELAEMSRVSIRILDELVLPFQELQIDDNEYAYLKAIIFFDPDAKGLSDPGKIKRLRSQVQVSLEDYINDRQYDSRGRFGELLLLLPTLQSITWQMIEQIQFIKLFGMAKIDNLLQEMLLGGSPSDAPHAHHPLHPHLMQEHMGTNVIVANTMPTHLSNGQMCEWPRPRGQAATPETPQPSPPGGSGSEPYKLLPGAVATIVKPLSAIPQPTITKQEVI
For GCACAGCTGATTGCTCAACCCAAAGCATGT, the binding signal (log2 normalized intensity) was -1.33.
With AAGACTCACATCTATCTCCCTACCCTCACC the binding signal (log2 normalized intensity) was 1.95.
Work on CCTAAATTCAAATGGACCCAAGCGGCCATT yielded a binding signal (log2 normalized intensity) of 1.96.
Work on TGAGGGAGCAAAGGGCATGGAGGATTTAGA yielded a binding signal (log2 normalized intensity) of 2.4.
Work on AATGTCTTTTAAATACATAGCTGGGATGAG yielded a binding signal (log2 normalized intensity) of 0.498.
For TAGCTCCAGTTGGTTGCTAAGAGACAGCTC, the binding signal (log2 normalized intensity) was -1.47.
Sequence CACACACCCCTCCACTGGACAGCAGCTACA has a binding signal (log2 normalized intensity) of 1.66.
CTGGCAGAGGGGATCAAGTGGCAATAAACT was tested, and the binding signal (log2 normalized intensity) was -1.33.
TGCATTCCTTTGTTTATCTAACCCACATCC showed a binding signal (log2 normalized intensity) of 1.85.
In the case of CCTTTTTAATGTTTCATTAAGCAAGATATG, the binding signal (log2 normalized intensity) is reported as 1.3.
With AATACACAATCTGAAGTCCCCTGTGCTTTG the binding signal (log2 normalized intensity) was 2.22.
CCACCACTGCTTCCTGCCCCCTGTGGTCAA showed a binding signal (log2 normalized intensity) of 4.14.
With GTGGGAAGGGATCAGAAATTGATTTGTAAC the binding signal (log2 normalized intensity) was 0.512.
For CAGGGTGGGGTCTCGCTGCTTCGGCCTTTG, the binding signal (log2 normalized intensity) was 1.11.
Sequence TACAGAATTCTCATGGAGGACTTTGGCCTT has a binding signal (log2 normalized intensity) of 7.81.
In the case of TAAATCCCTGCCAAAATATGTCAAGTAGCT, the binding signal (log2 normalized intensity) is reported as -1.39.
Work on TCTCTGGGTCAAAGGTCATCGCACCGGCAG yielded a binding signal (log2 normalized intensity) of 7.54.
In the case of CACAATGATAACAGCGTTTTCCCATTCATG, the binding signal (log2 normalized intensity) is reported as -1.34.
AGTATTTTCTGTCTAGGTGCCAGAATTGCT gave a binding signal (log2 normalized intensity) of -1.34.
Work on GAATGACTTTGGGGAAATGACCTTTGTCCA yielded a binding signal (log2 normalized intensity) of 9.48.
Work on GGAAGAGGAAGCATCCTATAGGCCTATAAT yielded a binding signal (log2 normalized intensity) of -1.26.
TTGTGGCAGTGAGAACAGGTTCATTCTTTA showed a binding signal (log2 normalized intensity) of 0.687.
Work on CAGAAGACTACAAATTCCTCAATCCAGTCA yielded a binding signal (log2 normalized intensity) of -1.23.
Sequence TGCAAGAGAGCAAACTTCAAAGAAGCTGTT has a binding signal (log2 normalized intensity) of -1.17.
TGGGTTCAAAGAGCACATTCCTGCACCATA showed a binding signal (log2 normalized intensity) of 3.22.
Sequence AGGCATACCTTTCTTATCATAAGTAAAAAG has a binding signal (log2 normalized intensity) of -0.0422.
CCTTATCTGAATTCCAGCATCACTAATGTC was tested, and the binding signal (log2 normalized intensity) was 0.361.
Work on CTTCCAAGTCTCAGCACCTGTGCTTCACTC yielded a binding signal (log2 normalized intensity) of -1.1.
With GCCTCATTTCACCTTTGGTCTTTGGTGAAA the binding signal (log2 normalized intensity) was 4.52.
TGTGACAAGAAAGACCCAAGGCGTATGAAG showed a binding signal (log2 normalized intensity) of -1.31.
In the case of GCGTCATCAGTCCAGGAGGGTCACAAGTCC, the binding signal (log2 normalized intensity) is reported as 3.15.
Sequence GGACAGACACACCCTTCAGAGCTTGAAAAG has a binding signal (log2 normalized intensity) of -1.26.
In the case of GTCCCCCGACCCGCCCGACTACAACAGCCT, the binding signal (log2 normalized intensity) is reported as 4.95.
CCACCTAGGCCGGTCAAGTCAGAGGCCCAG showed a binding signal (log2 normalized intensity) of -1.12.
GTGTTCTGCTGCCATTGGATGGAATGTTCT gave a binding signal (log2 normalized intensity) of 1.63.
With GTACAGCCTTTGATCTACAGTCAGAGGCCT the binding signal (log2 normalized intensity) was -1.04.
GCTTATCTCACTCCAAAGGCTGTTTGCACC was tested, and the binding signal (log2 normalized intensity) was 1.79.
GCAAAGGTTTCCTAAACAGTTACCGAGAGG was tested, and the binding signal (log2 normalized intensity) was -1.25.
With CTGCACAGGACTGCTCTCTACTCAGGGGGT the binding signal (log2 normalized intensity) was -1.1.
AGTAAAAGGTAGATACTATAATTAGAATCT gave a binding signal (log2 normalized intensity) of -1.23.
Work on TTACCGGTGTGACTTTGGTTGGATTTCTTG yielded a binding signal (log2 normalized intensity) of 1.56.
Sequence GAATAGAAAGAGGTCAATGTACTTACAGCT has a binding signal (log2 normalized intensity) of 1.18.
With AGGGTTAAATCTCGGTATAATTCCTAAATA the binding signal (log2 normalized intensity) was -1.28.
TCTATCCAGATGATCTTTACCCTGGAATGC was tested, and the binding signal (log2 normalized intensity) was 3.32.
TTACACCTGGGTGCTCCCTCCCCCTGCATG was tested, and the binding signal (log2 normalized intensity) was 4.37.
In the case of GCCTGCACACGGTGTCCAGATTCCAGCCTC, the binding signal (log2 normalized intensity) is reported as -1.25.
With CTATCATTATCTCTCACTGCAGAAACTCTG the binding signal (log2 normalized intensity) was 0.349.
Sequence ATAGGGTCAGTCTTTGTTCTAGTAAGGCCT has a binding signal (log2 normalized intensity) of 1.68.
GTGGACTTTGTCCTGTGGGCTGTAAAAATC showed a binding signal (log2 normalized intensity) of 5.73.
For ATAGGAACATGAACTGAGCAGGCCTGGGCT, the binding signal (log2 normalized intensity) was -1.42.
With GGGCCCCATCATGTGTACAGAGCTGAAGTT the binding signal (log2 normalized intensity) was 0.95.
Work on TCGAGGACAGGATGGGGGTGGGAGGCTGGG yielded a binding signal (log2 normalized intensity) of -1.35.
TACAAACACCAACCTGTTCCAAAGTCCACC was tested, and the binding signal (log2 normalized intensity) was 6.55.
With CGGATGACTCTTGGGCAGTCTAAAGTCTGA the binding signal (log2 normalized intensity) was 2.44.
For CCTCCTGCCTTTCCCTTATCAGGACTTTGT, the binding signal (log2 normalized intensity) was 4.3.
CAATTTTCAGGGTTAAAAGTTCTGCTGAGT showed a binding signal (log2 normalized intensity) of 0.935.
GCCTGCCCCTCTGACCTCTCCTCCTACCTT showed a binding signal (log2 normalized intensity) of 3.39.
CCCCCCACCCCAGAAGTATGGGAAGCTGAG showed a binding signal (log2 normalized intensity) of 3.85.
Work on AGCAGTCTGAGTAGGAAAGACTTGCTCATT yielded a binding signal (log2 normalized intensity) of -1.07.
For TCATTTTACAGATAAGGAAACCAAGGTCCA, the binding signal (log2 normalized intensity) was 1.85.
In the case of AACACTTGTGTCAACCGTGTCAACATTGCG, the binding signal (log2 normalized intensity) is reported as -1.2.
AGACCTTTGACATCACCTAACTTGTGGCTG showed a binding signal (log2 normalized intensity) of 1.49.
Sequence TCGTCCCACAATGCATTCCATATGGATTAA has a binding signal (log2 normalized intensity) of 0.33.
In the case of TTTGATAATTACAGAGCAAGTAGAGCTGCT, the binding signal (log2 normalized intensity) is reported as -1.26.
GCCTCCAAAGTCCGCTTGCCTGAGGGTCAT gave a binding signal (log2 normalized intensity) of 2.99.
TAGGTACTATTATTAGAGTCCCTTTTTTAG gave a binding signal (log2 normalized intensity) of 0.509.
For AAAGTTTATGTGTGAGCCTATAATTGATGT, the binding signal (log2 normalized intensity) was 1.26.
TGTGGGCGGGTGCAGCTTCCACCTGCAAGG showed a binding signal (log2 normalized intensity) of -0.674.
AGTCCATGTGTTAAATAATAACACTCCCAT was tested, and the binding signal (log2 normalized intensity) was -0.441.
TGATAAGGAAACTTAAGTCTCAAAGGTCAG showed a binding signal (log2 normalized intensity) of 6.45.
In the case of AGAATCATCTTTGAGCTGGATGACCTTTGT, the binding signal (log2 normalized intensity) is reported as 8.24.
For TTTCTCAGCTCTCCTCTGCCTCCAGCTGTT, the binding signal (log2 normalized intensity) was -1.3.
With AAGGAATTTAGCCTTTAACCTGCAGTTTCC the binding signal (log2 normalized intensity) was 2.31.
TTATGAGGCCTAACTGGCTTTGTCTGCTCA gave a binding signal (log2 normalized intensity) of -1.28.
In the case of CGAGTCCCTGCTGTGTCACGTACCGGCTAG, the binding signal (log2 normalized intensity) is reported as -0.767.
For GTGTGCTTTGTAGCACTTTGGACCTCCACT, the binding signal (log2 normalized intensity) was 5.13.
Sequence GAAACAGTCACAGTTATCAGACAGAGGAAT has a binding signal (log2 normalized intensity) of -1.34.
In the case of AACAAATCCAGGCAGGACTCTGTCCTGGGC, the binding signal (log2 normalized intensity) is reported as 0.361.
Work on CCATCAAGGATCAAGGACCTGCTCTGGGGC yielded a binding signal (log2 normalized intensity) of -1.27.
Work on GAAGACTTCGCTGGAATGTCACAGGGATTA yielded a binding signal (log2 normalized intensity) of -1.08.
In the case of TGAGGCCAGACAGGGGGGCGCCTACGGACG, the binding signal (log2 normalized intensity) is reported as -1.49.
In the case of GGTCCTACTCACACTCAAGGCAAGAGAGTC, the binding signal (log2 normalized intensity) is reported as -1.4.
ATCTAAGCTGGACTTTGAACTTCATGTGTG showed a binding signal (log2 normalized intensity) of 8.61.
For CCAAAGTCCAAAGTCCAGTCTTATCTGAGA, the binding signal (log2 normalized intensity) was 7.93.
In the case of TTAGGGGTTAGGGTTAGGGTTAGGGTTACG, the binding signal (log2 normalized intensity) is reported as 1.17.
Work on CCACATTCTCCACTGGGAAGTAGAAGAAAG yielded a binding signal (log2 normalized intensity) of -1.39.
Work on TTATAATCGCAGAATAAACGCTGAAGTCTC yielded a binding signal (log2 normalized intensity) of -1.26.
In the case of AGGCTGAGCCTAGGAGTTCAATGCTTCAGT, the binding signal (log2 normalized intensity) is reported as -0.187.
Sequence CTGTTCTGTTCCCTGGACTCAGCTCCCATA has a binding signal (log2 normalized intensity) of 1.78.
For TTGATCAAAGGTTGGACTGAGGACCACATG, the binding signal (log2 normalized intensity) was 2.78.
With CCAGAGCCAAAGGGCATATTGACTGCCCCA the binding signal (log2 normalized intensity) was 2.74.
AACGCTAGACACTGGGGACTAGTAGAGTGG showed a binding signal (log2 normalized intensity) of -1.33.
Sequence AGGAATCCTGACCAGGGGCCAGCAAGAGGT has a binding signal (log2 normalized intensity) of -1.38.
